Experimental data as given in the supplement of paper PMC5499739.
Whole data set: some 16,000 sequences, median “Z-score” near -0.37, cut for the highest 2% near 3.1. This is one part of the list.

Test system: RBM10 RRM1-ZnF-RRM2 (GST-tagged construct)
Assay: RNAcompete 7-mer binding Z-score; higher = stronger binding preference
How it was run: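 A designed pool of 241 399 RNAs, each up to 41 nt and transcribed from microarray-derived DNA templates, was used at 1.5 nmol with 20 pmol of GST-tagged RBM10 constructs. The mixture, in 1 ml Hepes pH 7.8 buffer with KCl, NaCl, glycerol, DTT, BSA and glutathione Sepharose beads, was held 30 min at 4°C and then washed four times for 2 min at 4°C. Bound RNA was read out by microarray hybridisation, and enrichment of each heptamer motif was scored as a one-sided Z-score over the probes carrying it.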

Sequence	RNAcompete 7-mer binding Z-score
AUAUUGU	-0.49
AGCAAGG	2.82
UCGCUUG	-0.788
AUCCCAA	-0.766
CUGACCU	-0.999
CAUAAGC	-0.661
UCAAACC	-0.719
CAGCUCG	-0.723
CUCGUGU	-0.522
GCAUCAA	-0.46
UUGUUAG	-0.398
GUGUUCA	-0.442
CCCGCGU	-0.562
UUAGCUC	-0.781
CGGCUAA	-0.198
CGAUCGA	-0.0816
UCAAAGA	-0.198
GCACUAA	-0.326
CCUACAU	-0.952
CACAUAU	-0.697
UGUCGUG	-0.0853
CGGUUUC	-0.227
GUUAGCG	0.468
UAAAACC	-0.508

Sequence	RNAcompete 7-mer binding Z-score
GUCGACC	-0.253
UCCUGCU	-0.883
GUACCUC	-0.464
CCUGGAG	0.0167
UGCAGCC	-0.329
CGUCGGG	1.14
UAGAGGU	1.68
GUCGUCG	0.206
GACCGGA	0.108
CACAAAA	-0.544
GCUAGGU	0.574
GCCGAAG	-0.0343
UAAAAAC	-0.497
AGACGUU	-0.639
UGACACA	-0.315
CUGUAGG	0.279
UCGUAAU	-0.471
AGGUGGU	2.19
CAUUCUC	-0.857
UGCAGCU	-0.391
CUGUGCA	-0.526
UGUGGCC	0.0459
GCGCGUA	-0.027
GCAAUCC	-0.457

Sequence	RNAcompete 7-mer binding Z-score
UGUCUUU	-0.763
CCCCAUG	-0.592
AGGAUCU	-0.431
UAAUAUU	-0.621
AUGAUGC	-0.344
AUUCGGU	-0.0816
AAGAUAU	-0.107
UAGUAAU	-0.326
CCCGGUA	-0.238
ACUUUAU	-0.832
GAAUAUA	0.104
CCCAGUA	-0.686
GGCAAAC	0.734
GGCAAGG	3.47
GCACCUU	-0.599
UGGUGCG	1.26
GGAAACG	1.92
CCGCCGC	-0.759
UACUUCC	-0.981
UACGAAC	-0.235
GUGCACC	-0.0306
UCCGUAA	-0.69
UAGGCUU	-0.333
AUUGAAA	-0.26

Sequence	RNAcompete 7-mer binding Z-score
CGUAUAA	-0.289
UCUGGCG	-0.5
CUAAAAG	-0.311
UGACUCC	-0.668
UGAGCGA	1.34
GUGUGGA	2.7
AUUCCGU	-0.653
GCGGAGA	1.67
GGUUGGU	1.94
ACCUGUC	-0.846
AGGUGAC	1.69
UACUAAG	-0.191
GGCGAGG	3.22
CGCCCGG	-0.446
CAUCGGG	1.11
CCCCGGC	-0.497
UGUUUGU	-0.286
GGGGAGA	2.53
CGCAUCC	-0.683
CUAGUUA	-0.384
UCACGUC	-0.683
CUUCUAU	-0.839
AAUAAGU	0.00944
UGUGGAG	2.47

Sequence	RNAcompete 7-mer binding Z-score
GUUAGAG	1.13
AGGUGAA	2.11
CUGCAGG	0.272
UGUGCUG	-0.0998
CACUCAC	-0.846
AUAGAUG	0.538
CAGAGCU	-0.151
UUCCAUC	-0.701
UCACAAU	-0.511
UUUUGAG	-0.264
GGAAGCA	1.76
UUUUAGU	-0.442
GCUAGGC	0.0349
GAUCGCG	-0.0925
CACAGUA	-0.22
AACACGU	-0.3
CCCCACU	-0.755
UUGCUCA	-0.726
ACGUCCA	-0.755
UAGAUGA	0.348
GAACACG	0.421
GCACUCU	-0.803
UCCUUAC	-0.65
CUGAUUA	-0.715

Sequence	RNAcompete 7-mer binding Z-score
AUCUACA	-0.704
CAAUAAU	-0.442
AUACUUU	-0.923
ACUUGCA	-0.726
GGGCCCA	-0.151
GAAAAUG	1.46
GCUACUU	-0.643
CUGCAUA	-0.69
AACGUAG	0.756
ACUUCCA	-0.843
ACCGCCU	-0.941
CCGAGAA	-0.464
AUACGUU	-0.482
AGUCGGA	0.993
AGUAGCG	0.61
GAGACAA	0.45
UAGCGCU	-0.479
GUCCUCU	-0.664
UUGAAUU	-0.606
CAUAUUU	-0.803
ACAGAUA	-0.304
AUCAAGA	-0.147
CCCCAUC	-0.551
AUCGCUU	-0.923

Sequence	RNAcompete 7-mer binding Z-score
GCUCUCC	-0.748
UAUGCUC	-0.865
UGUCUAC	-0.719
GUCCUGA	-0.592
AGGUGUC	0.53
UCAACCA	-0.551
CAAAUCA	-0.508
AUACCAU	-0.646
ACAGACG	0.253
GGUGAUA	1.81
GGCGCAU	0.217
CGAAUUC	-0.653
CCCGAUA	-0.715
CAUUCUU	-0.85
CGAUAGA	0.00216
CAAACAC	-0.515
CAAUAUC	-0.431
UCGGAUU	-0.398
AUGAAGU	0.439
CCUCUGC	-0.912
GGCACUG	0.545
AAACGAU	0.13
CCAGUUU	-0.821
CAACUAU	-0.511

Sequence	RNAcompete 7-mer binding Z-score
CCAAGGC	-0.0634
AGCACAG	0.217
UUAUUUU	-0.683
UCCGGAU	-0.0925
UUGACCG	-0.653
CACUUUC	-0.985
UUGUUUG	-0.322
AACGCCU	-0.963
UGUUAAC	-0.581
CCCAAAA	-0.803
CCGUUGA	-0.46
AGUUGAU	0.144
GAAUGCU	-0.322
AGCAUCG	-0.337
CGAGUCG	-0.0962
UCCAUCC	-0.602
GCGCGCA	-0.0998
UAGGUAA	1.96
AAUCGAA	0.0167
CGUUUGA	-0.748
GCGUAUU	-0.289
GUCUUGA	-0.672
GCUGAGG	1.16
ACGGCGU	0.304

Sequence	RNAcompete 7-mer binding Z-score
UUCCGUC	-0.726
CAGUAGG	2.35
CCUGCUA	-0.992
AAGCAAC	-0.0343
UUAGGCG	0.902
GGCGGCC	0.592
AUAGACU	-0.435
GCAAAUU	-0.369
ACGGGUC	1.42
AGUGCCC	-0.5
AAGUGAG	1.23
UACCUCU	-0.868
ACCCAGC	-0.785
CGCUCUU	-0.814
AUGAGAU	0.454
AGCAAGC	0.00216
CCAAUUU	-0.992
CGGGAAU	1.31
CGUUCUA	-0.788
AACUCAA	-0.482
GCCUUUA	-0.876
UUGUAUG	-0.14
CAACGGU	0.0969
CGUUGUU	-0.446

Sequence	RNAcompete 7-mer binding Z-score
UGGGGAG	3.37
AGUAGGA	3.08
CUAAUAC	-0.683
ACUCCGU	-0.901
AUUCCAA	-0.526
UCGAGAG	0.213
UACAGAG	0.206
AGCUAGG	1.1
AAGGUGC	2.55
AUAUAAC	-0.519
GUGGGCG	3.37
GAUAGUG	1.27
UGUAACG	-0.169
UUCGAGG	0.297
CAGGUAU	0.822
UACAGUC	-0.278
GAGUUCG	-0.0161
UCCCAUC	-0.613
